# Results taken from PubChem BioAssay AID1454 (National Center for Advancing Translational Sciences (NCATS), 2008).
# Among all 130,000 compounds or so, about 550 (0.42%) were called active. The shares of active, inactive and inconclusive entries below differ from those in the screen. Calls come from the whole dose curve; as a rule, active = well fitted inhibition curve with a large enough effect; inconclusive = small, poorly fitted or top-dose-only effect, or effect the other way; inactive = flat fitted curve, though single readings scatter. No potency is given beside an inconclusive call; the fits are too rough.
# Assay: qHTS Assay for Inhibitors of the ERK Signaling Pathway using a Homogeneous Screening Assay; Stimulation with EGF; note: nearly all actives have a fitted effect of over 55% in size;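 for activity change, negative = inhibition: plate controls were stimulated vehicle wells for no effect and unstimulated vehicle basal for full effect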
# Conditions: HEK293-V1b, EGF-stimulated phospho-ERK AlphaScreen; activity change, negative = inhibition: at the top concentration
# How it was run: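 Readout: AlphaScreen signal for phosphorylated ERK in lysed HEK293 cells stably expressing V1b. Stimulus 25 nM EGF, 5 min, following 30 min compound exposure. Data scaled to DMSO basal and full EGF activation.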
# Potency is the fitted concentration of half-maximal effect; tags give direction and shape of the fitted curve.
Compound,Potency,"activity change, negative = inhibition"
CN(C)CCCN(C(=O)CCc1ccccc1)c1nc2ccc(Cl)cc2s1,"inconclusive [inhibitor, single point]",
CC(=O)O[C@]1(C(C)=O)CC[C@H]2[C@@H]3C[C@H](C)C4=CC(=O)CC[C@]4(C)[C@H]3CC[C@@]21C,,inactive: -4.64% [at 57.5 µM]
CCOC(=O)c1c(C)n(CC)c2ccc(OC(=O)c3ccc([N+](=O)[O-])cc3)cc12,"inconclusive [inhibitor, single point]",
Cc1ccc(-n2nnc3c(=O)n(Cc4ccccn4)cnc32)cc1C,"inconclusive [activator, full curve, poor fit]",
COc1ccc(O[C@H]2C=C[C@@H](c3ccccc3)O[C@@H]2COC(=O)CC/C(C)=N/O[C@@H](C)c2cn([C@H](CO)Cc3ccccc3)nn2)cc1,"inconclusive [inhibitor, single point]",
CCOC(=O)COc1ccc2ccccc2c1/C=C/[N+](=O)[O-],"inconclusive [inhibitor, single point]",
O=c1c(-c2ccccc2)c(O)c2c(n1-c1ccccc1)CCCC2,,inactive: 0.857%
O=C(N/N=C/c1ccco1)c1cc(=O)[nH]c2ccccc12,"inconclusive [inhibitor, single point]",
CC(=O)N1CCN(c2ccc(NC(=S)NC(=O)COc3ccc(C(C)(C)C)cc3)cc2)CC1,"inconclusive [inhibitor, partial curve]",
C=CCC1(O)CCOc2ccccc21 (configuration not stated),,inactive: -6.31%
CC(C)Nc1ccc(C(CC(N)=O)NC(=O)c2ccc(Br)cc2)cc1[N+](=O)[O-] (configuration not stated),"inconclusive [inhibitor, full curve, poor fit]",
Cc1cccc(CCN=c2c([N+](=O)[O-])nn(-c3ccccc3)n2O)c1,"inconclusive [inhibitor, single point]",
Cc1ccc[n+](-c2nc([O-])sc2/C=N/Nc2ccc([N+](=O)[O-])cc2)c1,"inconclusive [inhibitor, single point]",
Cc1ccc(C(=O)NCCSc2c(C)[nH]c3ccccc23)cc1[N+](=O)[O-],"inconclusive [inhibitor, single point]",
CCOC(=O)c1cnc(-n2nc(C)cc2C)nc1NC1CCCC1,"inconclusive [inhibitor, single point]",
CCOC(=O)CCC(NC(=O)CCCCCCCC(=O)NC(CCC(=O)OCC)C(=O)OCC)C(=O)OCC (configuration not stated),,inactive: -5.25%
Cc1cccc(Cn2nc(C(C)(C)C)cc2C(=O)Nc2ccc(F)cc2)c1,"inconclusive [inhibitor, single point]",
COc1ccc(NC(=O)c2cc(-c3cccc(OC)c3)on2)cc1,"inconclusive [inhibitor, single point]",
O=[N+]([O-])c1ccc(CSc2ncnc3c2ncn3[C@@H]2O[C@H](CO)[C@H](O)[C@H]2O)cc1,,inactive: 19.5%
Cc1ccc(NC(=S)NCCCN2CCOCC2)cc1C,"inconclusive [activator, single point]",
O=C(CCC1CCCN(C(=O)CCCc2ccccc2)C1)N1CCN(c2ccccn2)CC1 (configuration not stated),"inconclusive [inhibitor, single point]",

Compound,Potency,"activity change, negative = inhibition"
COC(=O)C1=C(Nc2ccc(C)cc2)C=C(C)C(C(=O)OC)C1c1cccc(OC)c1 (configuration not stated),"inconclusive [activator, partial curve]",
COc1cccc2sc(Nc3nc4ccc(NC(C)=O)cc4s3)nc12,,inactive: 1.19%
Cn1c2c(c(=O)n(C)c1=O)C(C(F)(F)F)(C(F)(F)F)N=C(CCC1CCCCC1)N2,"inconclusive [inhibitor, partial curve]",
COc1ccc(-c2csc(Nc3ccccc3)[n+]2Cc2ccccc2)cc1,"inconclusive [inhibitor, partial curve, poor fit]",
CN(C)c1ccc(NC(=S)N2CCN(c3ncc(C(F)(F)F)cc3Cl)CC2)cc1,"inconclusive [inhibitor, partial curve]",
O=C(CCn1cnnn1)Nc1ccc(Cl)c(Cl)c1,"inconclusive [activator, full curve, poor fit]",
COc1ccc(/C=C/c2nc(-c3ccccc3O)n[nH]2)cc1OC,"inconclusive [inhibitor, single point]",
O=C(Nc1cccc(Cl)c1)c1cc(N=Nc2ccc([N+](=O)[O-])cc2Cl)ccc1O,active: 14.1 µM,
Cc1ccc(COc2ccc(C(=O)NN)cc2)cc1,"inconclusive [inhibitor, full curve, poor fit]",
COc1cc([N+](=O)[O-])ccc1NC(=O)Nc1ccc2c(c1)OCCO2,"inconclusive [inhibitor, partial curve]",
Cc1ccc([N+](=O)[O-])cc1N=Nc1c(-c2ccc([N+](=O)[O-])cc2)[nH]n(C(N)=S)c1=O,"inconclusive [inhibitor, partial curve]",
Cc1ccc(NC(=O)c2ccc(NCC3CCCO3)c([N+](=O)[O-])c2)cc1Cl (configuration not stated),"inconclusive [inhibitor, single point]",
Cc1nonc1OC(C)CNCCNc1ccc([N+](=O)[O-])cc1 (configuration not stated),"inconclusive [inhibitor, partial curve, poor fit]",
CCC1=C2CC[C@H]3C(=O)NC(=O)[C@H]3[C@H]2[C@@]2(C)C(=NCC(=O)OC)OC(=O)N2C1=O,,inactive: -0.486%
Nc1ccc(Oc2ccc3c(c2)OCO3)cc1,"inconclusive [inhibitor, single point]",
Cc1ccccc1N1CCN(C(=S)c2ccc([N+](=O)[O-])cc2)CC1,"inconclusive [inhibitor, partial curve]",
Cc1ccc2nc(Cl)c3cc(C(=O)N(CCN(C)C)Cc4ccco4)sc3c2c1,"inconclusive [inhibitor, single point]",
COc1ccc(N(C(=O)C(C)C)S(=O)(=O)c2cccc([N+](=O)[O-])c2)cc1,"inconclusive [inhibitor, partial curve]",
O=C(CN1CCN(c2ccc(F)cc2)CC1)c1cccs1,"inconclusive [inhibitor, single point]",
COC(=O)N1[C@H]2CC[C@@]3(C)CC(=O)C[C@]1(C)C3c1ccccc12,,inactive: 0.989%
Cc1nc(N2CCN(Cc3ccc4c(c3)OCO4)CC2)c2cc(-c3ccccc3)sc2n1,"inconclusive [inhibitor, single point]",

Compound,Potency,"activity change, negative = inhibition"
Cn1nc(C(F)(F)F)c(-c2cccc(C(F)(F)F)c2)c1NC(=O)Nc1ccc(F)cc1,"inconclusive [inhibitor, partial curve]",
Cc1ccc(C(=O)N(C)c2ccc(OCC(=O)N3c4ccc(C)cc4C4CN(C)CCC43)cc2)cc1 (configuration not stated),"inconclusive [inhibitor, single point]",
O=C(Nc1ccccc1C(=O)N1CCCCCC1)c1ccccc1Cl,"inconclusive [inhibitor, full curve, poor fit]",
Cc1ccc(-c2cc3nc(-c4ccccc4)cc(N4CCC5(CC4)OCCO5)n3n2)cc1,"inconclusive [activator, partial curve, poor fit]",
COC(=O)[C@@]1(Cc2ccccc2)[C@H]2c3cc(C(=O)N(C)C)n(Cc4cc(C)n(C)n4)c3C[C@H]2CN1C(=O)c1ccccc1,,inactive: -3.48%
COC(=O)c1ccc(-c2ncc(-c3cccc4ccccc34)o2)cc1,"inconclusive [activator, partial curve]",
Oc1cccc(C(Nc2nccs2)c2ccc3cccnc3c2O)c1 (configuration not stated),"inconclusive [inhibitor, partial curve]",
Cn1cc(/C=C2\SC(=O)N(c3ccc(O)cc3)C2=O)c2ccccc21,active: 35.5 µM,
O=C(NCc1ccccn1)c1ccc(N2CCCC2)c([N+](=O)[O-])c1,"inconclusive [inhibitor, single point]",
O=C(NCCc1ccccc1)Nc1cccc(Cl)c1,,inactive: -4.32%
COc1cccc(/C=C/c2ccc3ccccc3n2)c1OC(C)=O,"inconclusive [inhibitor, single point]",
COCCCn1c(O)c(/C=C2\N=C(C#N)C(=Nc3ccc(C)cc3)O2)sc1=S,"inconclusive [inhibitor, partial curve]",
CC(=Nc1ccccc1O)c1sc2ccccc2c1O,"inconclusive [inhibitor, partial curve]",
S=C(NCCC1=CCCCC1)NCc1ccco1,,inactive: -6.42%
COc1ccc(C(=O)c2cc([N+](=O)[O-])ccc2N2CCOCC2)cc1,"inconclusive [inhibitor, single point]",
COc1cc(/C=C2\SC(=S)NC2=O)ccc1OS(=O)(=O)c1ccccc1,"inconclusive [inhibitor, single point]",
CCOC(=O)C1(Cc2ccc(Cl)cc2)CCN(C(=O)c2sc(C)nc2C)CC1,"inconclusive [inhibitor, single point]",
CC(=O)c1c(C)[nH]c(C(=O)Nc2cccc(S(=O)(=O)N(C)c3ccccc3)c2)c1C,"inconclusive [inhibitor, single point]",
Cc1cccc(-n2nc([N+](=O)[O-])c(=NC3CCN(Cc4ccccc4)CC3)n2O)c1,"inconclusive [inhibitor, partial curve, poor fit]",
O=C(O)CCCCCNC(=O)c1ccc(C(=O)NCCCCCC(=O)O)cc1,"inconclusive [inhibitor, single point]",
